# Reference: the supplement of paper PMC10320760
# This is a noisy data set.
# B1: Ydj1; a variant is named by its letters at X, in order (parent)
# chain: MVKETKFYDILGVPVTATDVEIKKAYRKCALKYHPDKNPSEEAAEKFKEASAAYEILSDPEKRDIYDQFGEDGLSGAGGAGGFPGGGFGFGDDIFSQFFGAGGAQRPRGPQRGKDIKHEISASLEELYKGRTAKLALNKQILCKECEGRGGKKGAVKKCTSCNGQGIKFVTRQMGPMIQRFQTECDVCHGTGDIIDPKDRCKSCNGKKVENERKILEVHVEPGMKDGQRIVFKGEADQAPDVIPGDVVFIVSERPHKSFKRDGDDLVYEAEIDLLTAIAGGEFALEHVSGDWLKVGIVPGEVIAPGMRKVIEGKGMPIPKYGGYGNLIIKFTIKFPENHFTSEENLKKLEEILPPRIVPAIPKKATVDECVLADFDPAKYNRTRASRGGANYDSDEEEQGGEGVQCXXX
# Variants of: B1
# Assay: enrichment factor, frequency at 37 °C / frequency at 25 °C (thermotolerance selection) (ratio); higher = more growth at 37 °C, higher likelihood of farnesylation
# Conditions: with Saccharomyces cerevisiae ydj1Δ (yWS304); selective temperature 37 °C; reference temperature 25 °C
# Experimental: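 Pooled library of all 8,000 Ydj1-CXXX C-terminal motif variants (native CASQ replaced by C + three variable residues, one codon per amino acid) expressed from a CEN plasmid in S. cerevisiae ydj1Δ (yWS304). The library was grown in SC-Ura liquid to A600 ~2 (~8 generations) at permissive 25 °C or selective 37 °C. Reads from 8 and 7 replicates were pooled and variants counted by NGS. Enrichment factor = frequency at 37 °C / frequency at 25 °C, with a +1 correction; it reports Ydj1-dependent thermotolerance, used as a read-out of farnesylation by yeast FTase.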
row,Variant,enrichment factor
1,GDN,0.182
2,GDT,0.197
3,GDP,0.0979
4,GDW,0.102
5,GDV,0.142
6,GDR,0.16
7,GDQ,0.179
8,GDS,0.192
9,CDV,0.385
10,CDR,0.112
11,CDT,0.273
12,CDW,0.171
13,CDM,1.55
14,CDN,0.26
15,CDS,0.223
16,CDQ,1.77
17,CDP,0.174
18,KDP,0.114
19,KDM,0.745
20,KDQ,0.492
21,KDN,0.148
22,KDV,0.0784
23,KDT,0.162
24,KDW,0.164

row,Variant,enrichment factor
1,KDS,0.135
2,KDR,0.229
3,EDS,0.285
4,EDQ,0.397
5,EDT,0.137
6,EDR,0.162
7,EDN,0.138
8,EDV,0.18
9,EDW,0.253
10,EDP,0.165
11,WDQ,1.39
12,WDR,0.504
13,WDT,1.22
14,WDS,1.31
15,WDV,0.929
16,WDP,0.513
17,WDM,1.98
18,WDN,0.832
19,MDS,0.151
20,MDN,0.192
21,MDR,0.119
22,MDM,0.455
23,MDT,0.198
24,MDP,0.182

row,Variant,enrichment factor
1,MDV,0.143
2,MDQ,0.891
3,MDW,0.12
4,VDT,0.515
5,VDS,0.759
6,VDQ,1.83
7,VDV,0.602
8,VDP,0.197
9,VDM,1.83
10,VDN,0.28
11,VDR,0.179
12,FDW,0.263
13,FDT,0.359
14,FDP,0.267
15,FDN,0.248
16,FDQ,0.418
17,FDS,0.193
18,FDV,0.329
19,FDR,0.118
20,TDN,0.168
21,TDM,1.14
22,TDR,0.152
23,TDS,0.226
24,TDP,0.168

row,Variant,enrichment factor
1,TDQ,1.61
2,TDV,0.211
3,TDT,0.0973
4,SDT,0.183
5,SDN,0.222
6,SDM,0.648
7,SDR,0.159
8,SDQ,1.02
9,SDV,0.193
10,SDS,0.186
11,SDP,0.132
12,RDS,0.396
13,RDT,0.22
14,RDQ,1.14
15,RDR,0.147
16,RDM,1.19
17,RDP,0.243
18,RDV,0.215
19,RDN,0.13
20,ADS,0.29
21,ADN,0.193
22,ADP,0.153
23,ADT,0.184
24,ADV,0.135

row,Variant,enrichment factor
1,ADM,1.54
2,ADR,0.103
3,ADQ,1.6
4,NDP,0.131
5,NDR,0.386
6,NDW,0.228
7,NDS,0.203
8,NDV,0.17
9,NDT,0.307
10,NDN,0.146
11,NDM,0.46
12,NDQ,0.457
13,PDR,0.122
14,PDM,0.71
15,PDP,0.0952
16,PDV,0.161
17,PDT,0.192
18,PDS,0.182
19,PDQ,0.902
20,PDN,0.151
21,YDR,0.156
22,YDT,0.158
23,YDP,0.113
24,YDS,0.298

row,Variant,enrichment factor
1,YDM,0.281
2,YDV,0.226
3,YDQ,0.269
4,YDN,0.0922
5,LDT,0.153
6,LDN,0.186
7,LDS,0.38
8,LDM,1.09
9,LDW,0.196
10,LDR,0.111
11,LDP,0.146
12,LDV,0.216
13,LDQ,1.23
14,DDR,0.138
15,DDQ,0.132
16,DDT,0.141
17,DDS,0.164
18,DDM,0.18
19,DDN,0.112
20,DDP,0.173
21,DDV,0.0922
22,QDV,0.178
23,QDQ,1.04
24,QDT,0.15

row,Variant,enrichment factor
1,QDS,0.262
2,QDP,0.162
3,QDR,0.151
4,QDM,0.907
5,QDN,0.159
6,HDR,0.0727
7,HDQ,1.12
8,HDN,0.0806
9,HDS,0.116
10,HDV,0.141
11,HDM,1.06
12,HDP,0.164
13,HDT,0.146
14,HDW,0.157
15,IDW,0.151
16,IDN,0.161
17,IDM,1.4
18,IDS,0.532
19,IDT,0.213
20,IDP,0.155
21,IDR,0.144
22,IDQ,1.28
23,IDV,0.183
